{"source": "the supplement of paper PMC8728848", "binders": {"B1": {"name": "Epa1to9 (Candida glabrata) (protein)", "chain": "MGSSHHHHHHSSGLVPRGSHMTSSNDISLASKDPTTFPLGCSPDITTPKKGLSMELYSYDFRKKGSYPCWDAAYLDPNYPRTGYKSHRLLAKVDGVTGNINFYYHATKGCTPQLGHLPASYNYPKPLTMTNFTMLLYGYFRPKVTGFHTFTISADDLLFVNFGAGNAFDCCRRDSSADHFGNYQAYAIWGSKTAKDELTVHLDAGVYYPIRLFYNNRDYHGALSFTFKTESNENTVSDFSEYFFSLDDTEEGCPGLISYD"}}, "assay_in_all_cases": "glycan array binding signal (z-score within array); higher = stronger binding", "conditions_in_all_cases": "glycan notation: IUPAC condensed, linker removed", "key": {"Gal6S(b1-4)Glc": {"biological_target": "Gal6S(b1-4)Glc", "method_in_brief": "(§1)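 Negative Z-scores can be read as non-binding. The Z-score is calculated within each array and then averaged across arrays of one protein sequence at different concentrations or buffers and across linkers. Arrays, 3228 in all, were curated from the Consortium for Functional Glycomics database and kept only where the protein sequence was available.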"}, "Gal6S(b1-4)Glc6S": {"biological_target": "Gal6S(b1-4)Glc6S", "method_in_brief": "as §1"}, "Gal6S(b1-4)GlcNAc": {"biological_target": "Gal6S(b1-4)GlcNAc", "method_in_brief": "as §1"}, "Gal6S(b1-4)GlcNAc6S": {"biological_target": "Gal6S(b1-4)GlcNAc6S", "method_in_brief": "as §1"}, "GalNAc(a1-3)Gal": {"biological_target": "GalNAc(a1-3)Gal", "method_in_brief": "as §1"}, "GalNAc(a1-3)GalNAc": {"biological_target": "GalNAc(a1-3)GalNAc", "method_in_brief": "as §1"}, "[1]": {"biological_target": "GalNAc(a1-3)GalNAc(b1-3)Gal(a1-4)Gal(b1-4)Glc", "method_in_brief": "as §1"}, "[2]": {"biological_target": "GalNAc(a1-3)GalNAc(b1-3)Gal(a1-4)Gal(b1-4)GlcNAc", "method_in_brief": "as §1"}, "GalNAc(b1-3)Gal": {"biological_target": "GalNAc(b1-3)Gal", "method_in_brief": "as §1"}, "[3]": {"biological_target": "GalNAc(b1-3)Gal(a1-4)Gal(b1-4)GlcNAc", "method_in_brief": "as §1"}, "[4]": {"biological_target": "GalNAc(b1-3)Gal(a1-4)Gal(b1-4)GlcNAc(b1-3)Gal(b1-4)Glc", "method_in_brief": "as §1"}, "[5]": {"biological_target": "GalNAc(b1-3)Gal(a1-6)Gal(b1-4)Glc", "method_in_brief": "as §1"}, "GalNAc(b1-3)GalNAc": {"biological_target": "GalNAc(b1-3)GalNAc", "method_in_brief": "as §1"}, "GalNAc(b1-3)GlcNAc": {"biological_target": "GalNAc(b1-3)GlcNAc", "method_in_brief": "as §1"}, "GalNAc(b1-4)Gal(b1-4)Glc": {"biological_target": "GalNAc(b1-4)Gal(b1-4)Glc", "method_in_brief": "as §1"}, "GalNAc(b1-4)GlcNAc": {"biological_target": "GalNAc(b1-4)GlcNAc", "method_in_brief": "as §1"}, "[6]": {"biological_target": "GalNAc(b1-4)GlcNAc(b1-2)Man", "method_in_brief": "as §1"}, "[7]": {"biological_target": "GalNAc(b1-4)GlcNAc(b1-2)Man(a1-3)[GalNAc(b1-4)GlcNAc(b1-2)Man(a1-6)]Man(b1-4)GlcNAc(b1-4)GlcNAc", "method_in_brief": "as §1"}, "[8]": {"biological_target": "GalNAc(b1-4)GlcNAc(b1-3)GalNAc(b1-4)GlcNAc", "method_in_brief": "as §1"}, "GalNAc(b1-4)GlcNAc6S": {"biological_target": "GalNAc(b1-4)GlcNAc6S", "method_in_brief": "as §1"}, "GalNAc(b1-6)GalNAc": {"biological_target": "GalNAc(b1-6)GalNAc", "method_in_brief": "as §1"}, "GalNAc3S(b1-4)GlcNAc": {"biological_target": "GalNAc3S(b1-4)GlcNAc", "method_in_brief": "as §1"}, "GalNAc3S(b1-4)GlcNAc3S": {"biological_target": "GalNAc3S(b1-4)GlcNAc3S", "method_in_brief": "as §1"}, "[9]": {"biological_target": "GalNAc3S(b1-4)[Fuc(a1-3)]GlcNAc", "method_in_brief": "as §1"}, "GalNAc4S6S(b1-4)GlcNAc": {"biological_target": "GalNAc4S6S(b1-4)GlcNAc", "method_in_brief": "as §1"}, "GalNAc6S(b1-4)GlcNAc": {"biological_target": "GalNAc6S(b1-4)GlcNAc", "method_in_brief": "as §1"}, "Glc(a1-4)Glc": {"biological_target": "Glc(a1-4)Glc", "method_in_brief": "as §1"}, "[10]": {"biological_target": "Glc(a1-4)Glc(a1-4)Glc(a1-4)Glc", "method_in_brief": "as §1"}, "Glc(a1-6)Glc(a1-6)Glc": {"biological_target": "Glc(a1-6)Glc(a1-6)Glc", "method_in_brief": "as §1"}, "[11]": {"biological_target": "Glc(a1-6)Glc(a1-6)Glc(a1-6)Glc", "method_in_brief": "as §1"}, "Glc(b1-4)Glc": {"biological_target": "Glc(b1-4)Glc", "method_in_brief": "as §1"}, "Glc(b1-6)Glc": {"biological_target": "Glc(b1-6)Glc", "method_in_brief": "as §1"}, "GlcA(b1-3)Gal": {"biological_target": "GlcA(b1-3)Gal", "method_in_brief": "as §1"}, "GlcA(b1-3)GlcNAc": {"biological_target": "GlcA(b1-3)GlcNAc", "method_in_brief": "as §1"}, "GlcA(b1-6)Gal": {"biological_target": "GlcA(b1-6)Gal", "method_in_brief": "as §1"}, "[12]": {"biological_target": "GlcA3S(b1-3)Gal(b1-4)GlcNAc(b1-2)Man", "method_in_brief": "as §1"}, "[13]": {"biological_target": "GlcA3S(b1-3)Gal(b1-4)GlcNAc(b1-3)Gal(b1-4)Glc", "method_in_brief": "as §1"}}, "note": "The other results are listed elsewhere or left out.", "data": [{"binder": "B1", "values": [{"measurement": "glycan array binding signal (z-score)", "setting": "Gal6S(b1-4)Glc", "value": 5.05}, {"measurement": "glycan array binding signal (z-score)", "setting": "Gal6S(b1-4)Glc6S", "value": 7.26}, {"measurement": "glycan array binding signal (z-score)", "setting": "Gal6S(b1-4)GlcNAc", "value": 4.98}, {"measurement": "glycan array binding signal (z-score)", "setting": "Gal6S(b1-4)GlcNAc6S", "value": 10.6}, {"measurement": "glycan array binding signal (z-score)", "setting": "GalNAc(a1-3)Gal", "value": -0.358}, {"measurement": "glycan array binding signal (z-score)", "setting": "GalNAc(a1-3)GalNAc", "value": -0.351}, {"measurement": "glycan array binding signal (z-score)", "setting": "[1]", "value": -0.35}, {"measurement": "glycan array binding signal (z-score)", "setting": "[2]", "value": -0.327}, {"measurement": "glycan array binding signal (z-score)", "setting": "GalNAc(b1-3)Gal", "value": -0.347}, {"measurement": "glycan array binding signal (z-score)", "setting": "[3]", "value": -0.319}, {"measurement": "glycan array binding signal (z-score)", "setting": "[4]", "value": -0.313}, {"measurement": "glycan array binding signal (z-score)", "setting": "[5]", "value": -0.346}, {"measurement": "glycan array binding signal (z-score)", "setting": "GalNAc(b1-3)GalNAc", "value": -0.342}, {"measurement": "glycan array binding signal (z-score)", "setting": "GalNAc(b1-3)GlcNAc", "value": -0.358}, {"measurement": "glycan array binding signal (z-score)", "setting": "GalNAc(b1-4)Gal(b1-4)Glc", "value": -0.335}, {"measurement": "glycan array binding signal (z-score)", "setting": "GalNAc(b1-4)GlcNAc", "value": -0.351}, {"measurement": "glycan array binding signal (z-score)", "setting": "[6]", "value": -0.356}, {"measurement": "glycan array binding signal (z-score)", "setting": "[7]", "value": -0.337}, {"measurement": "glycan array binding signal (z-score)", "setting": "[8]", "value": -0.351}, {"measurement": "glycan array binding signal (z-score)", "setting": "GalNAc(b1-4)GlcNAc6S", "value": -0.348}, {"measurement": "glycan array binding signal (z-score)", "setting": "GalNAc(b1-6)GalNAc", "value": -0.349}, {"measurement": "glycan array binding signal (z-score)", "setting": "GalNAc3S(b1-4)GlcNAc", "value": -0.355}, {"measurement": "glycan array binding signal (z-score)", "setting": "GalNAc3S(b1-4)GlcNAc3S", "value": -0.353}, {"measurement": "glycan array binding signal (z-score)", "setting": "[9]", "value": -0.357}, {"measurement": "glycan array binding signal (z-score)", "setting": "GalNAc4S6S(b1-4)GlcNAc", "value": -0.346}, {"measurement": "glycan array binding signal (z-score)", "setting": "GalNAc6S(b1-4)GlcNAc", "value": -0.354}, {"measurement": "glycan array binding signal (z-score)", "setting": "Glc(a1-4)Glc", "value": -0.36}, {"measurement": "glycan array binding signal (z-score)", "setting": "[10]", "value": -0.34}, {"measurement": "glycan array binding signal (z-score)", "setting": "Glc(a1-6)Glc(a1-6)Glc", "value": -0.355}, {"measurement": "glycan array binding signal (z-score)", "setting": "[11]", "value": -0.347}, {"measurement": "glycan array binding signal (z-score)", "setting": "Glc(b1-4)Glc", "value": -0.362}, {"measurement": "glycan array binding signal (z-score)", "setting": "Glc(b1-6)Glc", "value": -0.333}, {"measurement": "glycan array binding signal (z-score)", "setting": "GlcA(b1-3)Gal", "value": -0.315}, {"measurement": "glycan array binding signal (z-score)", "setting": "GlcA(b1-3)GlcNAc", "value": -0.346}, {"measurement": "glycan array binding signal (z-score)", "setting": "GlcA(b1-6)Gal", "value": 0.861}, {"measurement": "glycan array binding signal (z-score)", "setting": "[12]", "value": -0.337}, {"measurement": "glycan array binding signal (z-score)", "setting": "[13]", "value": -0.35}]}]}
